From the supplement of paper PMC3334620
The full ranking holds about 33,000 sequences; the median of “E-score (-0.5 to 0.5)” is about -0.021, and the highest 2% start at about 0.32. The list shows a part of the results.

What follows are sequences tested against T1, Zap1 (UniProt P47043) (assay: PBM E-score (8-mer binding enrichment) (E-score (-0.5 to 0.5)); higher = stronger / more preferred TF binding; most listed sequences are background and not binding sites). Conditions: protein concentration: 200 nM; construct: GST-full length.
T1 sequence: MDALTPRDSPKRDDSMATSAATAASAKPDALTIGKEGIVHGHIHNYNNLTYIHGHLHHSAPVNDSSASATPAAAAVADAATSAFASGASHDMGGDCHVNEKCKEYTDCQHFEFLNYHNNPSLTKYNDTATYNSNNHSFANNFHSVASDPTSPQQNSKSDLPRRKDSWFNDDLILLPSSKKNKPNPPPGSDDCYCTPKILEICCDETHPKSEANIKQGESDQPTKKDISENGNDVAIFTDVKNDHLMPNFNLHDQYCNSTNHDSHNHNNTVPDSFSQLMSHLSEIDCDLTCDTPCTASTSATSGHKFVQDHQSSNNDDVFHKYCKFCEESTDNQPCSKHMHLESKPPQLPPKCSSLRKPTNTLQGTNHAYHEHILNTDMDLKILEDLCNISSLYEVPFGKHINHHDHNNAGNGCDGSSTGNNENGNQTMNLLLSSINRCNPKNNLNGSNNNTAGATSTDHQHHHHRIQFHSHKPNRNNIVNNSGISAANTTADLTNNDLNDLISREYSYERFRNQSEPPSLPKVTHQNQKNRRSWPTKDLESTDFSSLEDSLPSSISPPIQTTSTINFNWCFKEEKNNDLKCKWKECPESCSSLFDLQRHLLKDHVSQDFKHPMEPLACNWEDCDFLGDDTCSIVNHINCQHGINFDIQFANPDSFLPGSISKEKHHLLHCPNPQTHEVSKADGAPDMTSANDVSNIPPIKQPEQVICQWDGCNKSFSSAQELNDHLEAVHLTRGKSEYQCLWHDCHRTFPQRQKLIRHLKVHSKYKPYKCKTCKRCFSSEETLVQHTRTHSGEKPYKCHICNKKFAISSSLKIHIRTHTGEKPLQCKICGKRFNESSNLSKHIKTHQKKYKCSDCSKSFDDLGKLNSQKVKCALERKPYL
Method: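 Universal 'all 10-mer' protein binding microarrays (Agilent AMADID 015681) probed with GST-tagged S. cerevisiae TFs (full-length or DBD) made by in vitro transcription/translation (PURExpress), about 100-200 nM. Bound TF was detected with fluorescent anti-GST. Each ungapped 8-mer (which stands for itself and its reverse complement) is scored by the PBM enrichment score (E-score), a modified Wilcoxon-Mann-Whitney statistic from -0.5 to +0.5, computed with the Universal PBM Analysis Suite. Scale: above 0.35 generally sequence-specific binding.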

Sequence | PBM E-score
AGTTGCGG | 0.203
AGCCGTGA | -0.134
ACGCCCTA | 0.0643
ACAGTTAA | 0.156
ACGGGAGG | -0.239
CAACGAAA | 0.144
GTTAATCA | 0.262
TCTTACAA | 0.0246
ATTAGGAC | -0.00125
GTGTTCCA | -0.0446
CCAAGTTC | 0.00712
CGGCCCTA | -0.0189
GCACCAGC | -0.181
GTAAACTA | 0.0939
GCCGCTCA | -0.14
AACACTTC | 0.0557
ACCACCCT | 0.352
ATCGGCAC | -0.172
CTATGGGC | -0.213
CCCCGCGC | -0.138
GCCCGGGA | 0.0322
CGGAATCA | -0.0619
CACGTATG | 0.0325
GGCCTTCA | 0.167
AAATGGAG | -0.132

Sequence | PBM E-score
CGTACCGC | -0.055
CAATTTGG | -0.0362
AACCGACA | 0.158
ACACGGGA | -0.161
GCTTGTCA | -0.0265
CTCCCACA | -0.209
AGCCTACC | -0.0988
CGTGTCGA | 0.0265
GCAATAAA | 0.243
AATATACG | -0.127
CATAACTC | 0.132
CAGGCAAC | -0.164
AACAAGGT | 0.293
ATAAATTC | -0.0101
CCGCACTC | -0.0319
AAGTCTAC | -0.0493
GCCCCAGA | -0.0408
CATGATCG | 0.06
CCACACCC | 0.181
CTGGTCAC | 0.148
CAGGCTAC | -0.144
CGCATATC | 0.104
TACTCCCA | -0.0615
ACCGGACA | -0.0999
CGGCTAGA | -0.178

Sequence | PBM E-score
ACGTGGAC | -0.0518
CAAAGCCC | -0.22
AGGAGTTG | -0.0268
AACCTTCA | 0.368
AAGCATAT | 0.0223
ACTGGCTA | -0.0583
CTCAGTAC | -0.0326
AGCGTGCC | -0.33
GAGTTCCA | 0.0167
GCTGTCCC | -0.127
CGCCCCAA | 0.253
CGTTTCTC | -0.106
ACATCGAA | 0.0163
AGATAGGA | -0.186
AGGAGTAG | -0.0329
CAACAAGA | 0.129
AACTCCAA | -0.0751
CCACCTAC | -0.188
CATAAAAG | 0.135
AGGACCAA | 0.159
ACTTACAT | 0.00526
CCCGCTAC | 0.0597
AGAAACAC | 0.166
ACCATAAC | 0.399
AAAAGGAT | 0.0556

Sequence | PBM E-score
GACGTCAC | -0.223
CACGTAAA | -0.289
CCTCTGTC | 0.0337
ACCCTTAA | 0.443
ACTACCCT | 0.445
GACTCCAC | -0.358
AGCTGCAC | -0.101
CTAAGAAA | 0.0841
CCAACCAC | 0.256
AACTCACA | 0.111
TCGGGCCA | -0.122
ACTCTTTG | -0.0892
CGGAGTGC | -0.0171
AGCGTTTG | 0.0372
GGGCGGGA | 0.0916
AGCAGCAA | 0.0188
ACAGGGGT | 0.208
ACGACCGT | -0.134
GCAGGCAC | -0.0855
CGAGTACA | -0.037
AGGATCGC | -0.11
CCGTCCAA | -0.134
ACCAACAC | 0.178
AAAACAAC | -0.0349
CACATAGG | -0.008

Sequence | PBM E-score
CAGGTTGA | -0.0454
CCTCCATC | -0.227
AAAATAAG | 0.0496
ATTGCTTC | -0.0372
CGAACGCA | 0.163
GCGCCTCA | -0.204
AGGGCAAC | -0.11
ACATTTCT | -0.0508
CACTCAAG | 0.0566
ATCGCGGC | 0.1
CCATGCAG | -0.123
AACCGGCA | 0.133
CCCTTAAA | 0.0531
ATTTCCAG | 0.0665
CCCATATC | 0.0562
GCTTCTAA | -0.247
CGCAACAA | 0.109
CAAAGTTA | 0.213
ATTTGGGG | 0.0876
TCGGCCCA | -0.0267
CAAGCGAA | -0.109
GGCTCGGA | -0.294
CTGGTTAC | 0.412
ATCTTAAT | -0.00148
GAGGCGAC | -0.297

Sequence | PBM E-score
AGCAACTA | -0.0241
CCTTAGTC | -0.112
TCGTTACA | -0.024
AAGGCCGG | 0.0655
GGTAGGGA | 0.0858
GCTTAGAA | 0.0605
AATCCATC | -0.206
CTGTAGCA | -0.127
TCGCTGCA | -0.144
CTGGATTA | -0.0175
TTACACAA | 0.21
CTGTAGAC | -0.124
ATACTCGA | -0.0721
CGCGCGCG | 0.0913
CACGGAAG | -0.12
GAGCGCGA | 0.0578
GCTGCTCC | -0.347
ATGACTTA | -0.00776
AACGTAGC | -0.0278
CGCCGTCA | -0.252
TCCGCTAA | 0.018
ACCCTTCT | 0.272
CGCTGTAC | -0.0562
ACATGGGC | -0.0618
TAGGCAGA | 0.0261

Sequence | PBM E-score
GCTGGGCA | -0.212
AGGTCCTC | 0.0273
AGCGTGAA | -0.112
ATCTGACC | 0.187
GAGTGATC | -0.037
ATTTACGA | 0.0274
AAGACCGC | 0.0669
TCCGGAGA | -0.0947
ACCAACTA | 0.13
CCACCTAG | -0.00242
CATCATCG | -0.119
ATGAACTA | -0.00172
AGGTGCTA | -0.197
GATGGTGC | -0.228
ATACGTGA | -0.0843
CCTCGGTA | 0.148
ATGTCTAG | 0.0655
CCCAGCCA | -0.115
ACGTCTTC | -0.195
ACCTATGC | -0.0629
CGCGTTAG | 0.107
ACGCAAAC | -0.0124
